Source: PMC6919601, “Identification of Plasmodium dipeptidyl aminopeptidase allosteric inhibitors by high throughput screening” (PLoS ONE, 2019)
Among all 110,000 compounds or so, about 230 (0.21%) showed an effect of 50% or more. The list shows a part of the results.

Target: DPAP1 (Plasmodium falciparum, UniProt Q8IIJ9)
Experiment: primary screen, percent inhibition; read by cleavage of a fluorogenic dipeptide substrate; higher = more effect of the substance
Parameters: species or system P. falciparum D10 trophozoite lysates; single well
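Also: 30 min substrate incubation versus DMSO and 10 µM JCP410 controls.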

DPAP1, sequence (Q8IIJ9 whole entry, looked up): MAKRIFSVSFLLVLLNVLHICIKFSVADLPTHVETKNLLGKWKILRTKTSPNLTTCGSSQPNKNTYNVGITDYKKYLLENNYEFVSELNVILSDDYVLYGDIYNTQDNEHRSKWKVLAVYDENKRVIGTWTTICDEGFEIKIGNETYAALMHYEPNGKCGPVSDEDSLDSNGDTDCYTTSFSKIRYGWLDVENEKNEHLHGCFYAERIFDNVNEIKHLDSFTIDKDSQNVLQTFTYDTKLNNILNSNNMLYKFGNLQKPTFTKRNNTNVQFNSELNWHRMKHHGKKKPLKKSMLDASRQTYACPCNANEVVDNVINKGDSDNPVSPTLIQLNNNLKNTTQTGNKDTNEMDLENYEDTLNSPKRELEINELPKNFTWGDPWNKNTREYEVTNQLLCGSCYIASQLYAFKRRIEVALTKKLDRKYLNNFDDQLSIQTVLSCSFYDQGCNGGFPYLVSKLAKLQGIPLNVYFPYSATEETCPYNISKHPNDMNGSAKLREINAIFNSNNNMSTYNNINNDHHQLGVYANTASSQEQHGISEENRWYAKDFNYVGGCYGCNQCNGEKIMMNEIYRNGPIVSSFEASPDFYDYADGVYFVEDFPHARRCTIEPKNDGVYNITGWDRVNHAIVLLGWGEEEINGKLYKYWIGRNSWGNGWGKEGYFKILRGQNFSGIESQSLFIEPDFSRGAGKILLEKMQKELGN

First: C=CCN1C(=O)C2(C(C#N)=C(N)Oc3n[nH]c(CC)c32)c2ccccc21 (centres unmarked)
Second: CN1CSC2=C(C#N)C(c3ccccc3Cl)CC(=O)N2C1 (centres unmarked)
The “% Inhibition @ 10 uM” value of the first is lower: -4.61% for the first, 56.6% for the second.

Compared with `COc1ccc(C(=O)c2cc3ccccc3cc2N)cc1`, `COc1ccc(N2C3=C(C(=O)CC2c2ccccc2)C(=O)CC(C)(C)C3)cc1` (centres unmarked) is lower in “% Inhibition @ 10 uM” value: -0.891% for the first, -6.43% for the second.

Going from `Cc1cc(C)n(-c2nc3c(c(=O)[nH]c(=O)n3C)n2CC(O)COc2ccccc2C)n1` (centres unmarked) to `Cc1cccc(C)c1NC(=O)C(c1ccc(Cl)cc1)N(C)C(=O)CN1C(=O)c2ccccc2C1=O` (centres unmarked), the “% Inhibition @ 10 uM” value rises from 4.67% to 14.4%.

First: CCOc1cc2c(cc1/C=C1/NC(=O)N(Cc3ccc(Cl)cc3)C1=O)OCO2
Second: CCOC(=O)N1CCc2c(sc3nc(SCC(N)=O)n(-c4ccc(Cl)cc4)c(=O)c23)C1
The “% Inhibition @ 10 uM” value of the first is lower: -0.0626% for the first, 3.65% for the second.

Compared with `COc1ccccc1C(=O)N(CCN(C)C)c1nc2ccc(Cl)cc2s1`, `O=C(CCCC(=O)c1ccccc1)Nc1nc2ccc(Br)cc2s1` is higher in “% Inhibition @ 10 uM” value: -9.48% for the first, -5.03% for the second.

Compared with `OCCN1CCN(Cc2ccc(F)c(F)c2)CC1`, `CCOC(=O)CN1CCN(c2cccc(C)c2C)CC1` is higher in “% Inhibition @ 10 uM” value: 0.247% for the first, 3.01% for the second.

Going from `COCCNC(=O)CN1Cc2ccccc2C1=O` to `CC(C)OCCCNC(=O)c1cc(-c2ccccc2)c(N2CCCCC2)s1`, the “% Inhibition @ 10 uM” value falls from -0.501% to -2.1%.

First: O=C(/C=C/c1ccccc1)Nc1ccc(Br)cn1
Second: Brc1ccccc1Cn1cnc2ccccc21
The “% Inhibition @ 10 uM” value of the first is lower: -3.48% for the first, 1.8% for the second.

Going from `CC(C)(C)c1ccc(C(=O)NCCn2ccc3ccccc32)cc1` to `O=C(NCCc1ccccc1)c1cc(-c2ccco2)on1`, the “% Inhibition @ 10 uM” value falls from 1.97% to -5.77%.

First: Nc1cc(Oc2ccccc2)cc(Oc2cccnc2)c1
Second: COc1cccc(/C=C(\C#N)c2nc(-c3ccccc3)cs2)c1
The “% Inhibition @ 10 uM” value of the first is higher: 3.09% for the first, 1.83% for the second.

Going from `O=C(CSc1c2c(nc3ccc(Cl)cc13)CCCC2)NCc1cccnc1` to `O=C(CNS(=O)(=O)c1ccc(Br)cc1)NCc1cccnc1`, the “% Inhibition @ 10 uM” value rises from -4.96% to -2.09%.

Going from `CCN(CC)CCN(C)Cc1ccc(F)c(Br)c1` to `O=C(Cn1nc(C(F)(F)F)cc1C1CC1)Nc1ccc(Cl)cc1`, the “% Inhibition @ 10 uM” value falls from 3.18% to 1.57%.

Compared with `CC(C)(C)NC(=O)c1cccc2c1-c1ccccc1C2=O`, `Cc1ccc(C(c2ccccc2)C2C(=O)c3ccccc3C2=O)c(C)c1` (centres unmarked) is higher in “% Inhibition @ 10 uM” value: -8.44% for the first, 15.1% for the second.

Compared with `Cc1ccc(N2C(=O)C3CC=CCC3C2=O)cc1C` (centres unmarked), `O=C(O)C1CC=CCC1C(=O)Nc1ccc(N2CCN(c3ccc(Cl)cc3)CC2)cc1` (centres unmarked) is lower in “% Inhibition @ 10 uM” value: 8.06% for the first, -8.41% for the second.

First: CCSc1nc2ccccc2c(=O)n1-c1ccccc1
Second: Cc1nc2ccccc2c(O)c1Cc1c(C)nc2ccccc2c1O
The “% Inhibition @ 10 uM” value of the first is higher: -3.37% for the first, -6.71% for the second.

Going from `CC(C)C[C@H](NC(=O)C1CCCCC1)C(=O)NCC#N` to `Cc1nn(-c2ccccc2)c(Cl)c1C(=O)NC1CCCCC1`, the “% Inhibition @ 10 uM” value rises from -4.72% to -0.85%.

First: CCC1CCCCN1C(=O)CS(=O)(=O)Cc1nc(-c2ccc(C)cc2)oc1C (centres unmarked)
Second: CCOc1ccc(CNC(=O)CCCn2ccc3cc(S(=O)(=O)N4CCCC4)ccc32)cc1
The “% Inhibition @ 10 uM” value of the first is lower: -1.89% for the first, 9.49% for the second.

Compared with `O=C(NCCO)c1ccc2[nH]c3c(c2c1)CCCC3`, `COc1ccc(/C=C/C(=O)Nc2c3c(nc4c2CCC4)CCCC3)cc1OC` is higher in “% Inhibition @ 10 uM” value: -1.33% for the first, 1.91% for the second.

Going from `CCc1ccc(-c2csc(NC(=O)c3ccco3)n2)cc1` to `Cc1nc2ccccc2c2oc(C(=O)N3CCc4ccccc4C3)cc12`, the “% Inhibition @ 10 uM” value falls from 1.35% to -3.45%.

Going from `c1cncc(CN2CCN(C3CC4CCC3C4)CC2)c1` (centres unmarked) to `COc1ccc(OCCCN2CCOCC2)cc1`, the “% Inhibition @ 10 uM” value rises from -0.0494% to 2.22%.

Going from `CC1=C(C(=O)Nc2cc(C)ccn2)C(c2ccc(Cl)cc2)C2=C(O)CCCC2=N1` (centres unmarked) to `CSc1nc(O)c2c(n1)N=C1CCCC(O)=C1C2c1ccc(C)cc1` (centres unmarked), the “% Inhibition @ 10 uM” value falls from 2.7% to -2.04%.

First: COc1ccc(S(=O)(=O)c2c(SC)n[nH]c2N)cc1
Second: Cc1ccc2nc(NC(=O)C(NS(=O)(=O)c3cccc4nsnc34)C(C)C)sc2c1 (centres unmarked)
The “% Inhibition @ 10 uM” value of the first is higher: 3.99% for the first, -0.465% for the second.

Going from `CCCN1CC2=C(N=C(S)NC2c2cccc3ccccc23)/C(=C/c2cccc3ccccc23)C1` (centres unmarked) to `O=C(NCCc1ccc(Cl)cc1)C1(NS(=O)(=O)c2cccc3cccnc23)CCCCC1`, the “% Inhibition @ 10 uM” value falls from -0.415% to -6.07%.

First: O=[N+]([O-])c1cccc(-c2nnnn2-c2ccccc2)c1
Second: CCOc1ccc2c(=O)c(Oc3ccccc3)c(C(F)(F)F)oc2c1
The “% Inhibition @ 10 uM” value of the first is lower: -5.73% for the first, -4.21% for the second.

First: CC(C)(C)C(=O)NCCNC(=O)c1nonc1N
Second: Cc1nnc2c3c4c(sc3ncn12)CCC4
The “% Inhibition @ 10 uM” value of the first is lower: -3.53% for the first, -2.32% for the second.
